From PubChem BioAssay AID686971 (National Center for Advancing Translational Sciences (NCATS), 2013)
The campaign covered roughly 360,000 compounds. About 7,500 (2.1%) were called active. Inconclusive means that the source gave no clear call. Such entries were picked first, then a sample of the others. The call rests on the fitted dose curve; in most records, active means well fitted cell-killing curve with a large enough effect; inconclusive means small, poorly fitted or top-dose-only effect, or effect the other way, or another doubt; inactive means no such curve, though single readings can be large or run the other way. No potency is given beside an inconclusive call; the fits are too rough.

Assay: qHTS for induction of synthetic lethality in tumor cells producing 2HG: qHTS for the HT-1080-IDH1KD cell line;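 on activity, negative = toxicity: 0% = DMSO wells and -100% = cell-free medium wells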
Details: HT-1080 IDH1 knockdown viability, ATP luminescence, 48 h; activity, negative = toxicity: at 46.1 µM (top of the series) unless noted
Summary of the method: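 Luminescent ATP read-out (CellTiter-Glo, 10 min at room temperature) after 48 h compound exposure at 37 °C gave viability of IDH1-knockdown HT-1080 cells. Activity was normalised to DMSO and cell-free wells, then fitted as concentration-response curves.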
Potency means the concentration at half of the fitted maximal effect; tags describe the fitted curve by direction and shape.

Structure (SMILES)	Potency	activity, negative = toxicity
COc1ccc(-n2c(-c3cccc(OC)c3)nc(=S)c3c2CCCC3)cc1	inconclusive [cytotoxic, single point]	
CCCCCn1c(=O)[nH]c2cc(C(=O)NCCN3C(C)CCCC3C)ccc2c1=O (stereo not given)	inconclusive [cytotoxic, partial curve]	
COc1ccc(/C=N/Nc2nc(Nc3ccccc3)nc(N3CCCC3)n2)cc1[N+](=O)[O-]	inconclusive [cytotoxic, single point]	
CC(C)(CNC(=O)c1cc(Cl)c(O)c(Cl)c1)N1CCCCC1	inactive	
Clc1c(Cl)c(Cl)c2n[nH]nc2c1Cl	inconclusive [cytotoxic, partial curve, poor fit]	
N#C/C(=N\Nc1ccc(S(=O)(=O)N2CCc3ccccc32)cc1)C(N)=S	active: 9.2 µM	
O=C(COC(=O)CN1C(=O)C2CC=CCC2C1=O)Nc1cccc([N+](=O)[O-])c1 (stereo not given)	inactive	
C=CCn1c(=O)c2c(nc3n2CCCN3CCc2ccccc2)n(C)c1=O	inactive	
Cc1ccc(Nc2nc(N)nc(CCl)n2)cc1	active: 8.2 µM	
Cc1c(Cl)cccc1N=Cc1ccc([N+](=O)[O-])s1	active: 10 µM	
Nc1ccc2nc(CCCCc3nc4ccccc4[nH]3)[nH]c2c1	inactive	
CCn1c(SCC(=O)Nc2nc(-c3ccccc3)cs2)nnc1-c1ccccc1	inconclusive [cytotoxic, single point]	
Cc1ccc(CNC(=O)C2CC(c3cccc([N+](=O)[O-])c3)=NO2)o1 (stereo not given)	inactive	
Cc1ccc(-n2nnnc2SCCNS(=O)(=O)c2ccccc2)cc1C	inconclusive [cytotoxic, single point]	
CC1=NNC(=O)/C1=C\c1cn(-c2ccccc2)nc1-c1cccs1	active: 8.2 µM	
Cc1nn(-c2ccccc2)c2sc(C(=O)N(CC(=O)NC3CCCC3)Cc3ccco3)cc12	inconclusive [cytotoxic, partial curve]	
CC(C)NC(=S)NC(=O)/C=C/c1ccc(F)cc1	inactive	
O=C(O)Cn1c(SCCOc2ccccc2F)nc2ccccc21		inconclusive: 30.8%
COc1c(C)cc(C(O)c2ncc(-c3ccccc3)[nH]2)cc1C (stereo not given)	inconclusive [cytotoxic, single point]	
COc1ccc(-c2csc(N3C(=O)C4C5c6ccccc6C(c6ccccc65)C4C3=O)n2)cc1 (stereo not given)	inconclusive [rising, partial curve, poor fit]	
FC(F)(F)c1cccc(NC(=S)NCc2ccccc2)c1	inconclusive [cytotoxic, single point]	
COc1ccc(C)cc1NC(=O)CNc1ccccc1CN(C)C1CCCCC1	inconclusive [cytotoxic, single point]	
COC(=O)c1cc(=O)nc(NN=Cc2ccc(C)cc2)s1	inactive	
O=C(OCc1ccc([N+](=O)[O-])cc1)c1cc([N+](=O)[O-])ccc1N1CCOCC1	inconclusive [cytotoxic, single point]	

Structure (SMILES)	Potency	activity, negative = toxicity
CCSc1nnc(CNC(=O)C23CC4CC(CC(C4)C2)C3)n1Cc1ccccc1	inactive	
O=C(Nc1ccccc1-c1nc2ccccc2s1)c1ccco1	inconclusive [cytotoxic, single point]	
O=[N+]([O-])c1cc(S(=O)(=O)Oc2ccccc2)ccc1Cl	active: 18.4 µM	
CC1(C)CC(=O)c2cc(C(=O)NNc3ccccc3)c(=O)n(-c3ccccc3)c2C1	inconclusive [cytotoxic, partial curve]	
C=C(C)CSc1nncn1/N=C/c1ccc(OC)cc1	inconclusive [cytotoxic, single point]	
CCc1nccn1CCC(=O)N1CCc2c([nH]c3ccccc23)C1CC(C)C (stereo not given)		inconclusive: -30.4% [cytotoxic]
O=C(N/N=C1\CCCc2ccccc21)c1ccc([N+](=O)[O-])cc1Cl	inconclusive [cytotoxic, partial curve]	
COc1ccc(C(C)(C)C)cc1NC(=O)c1cccc(S(=O)(=O)N2CCN(C(C)=O)CC2)c1	inconclusive [cytotoxic, single point]	
Cc1cc(C)c(C)c(S(=O)(=O)N2CCC(C(=O)NCC(c3ccccc3)N(C)C)CC2)c1C (stereo not given)	active: 18.4 µM	
CCOc1ccc(CN(C)CC(O)COC(c2ccc(OC)cc2)c2ccc(OC)cc2)cc1 (stereo not given)	inconclusive [cytotoxic, single point]	
CCNc1oc(-c2cccc3ccccc23)nc1C#N	inconclusive [cytotoxic, single point]	
C=CCOC(=O)C1=C(C)NC(=S)NC1/C=C/c1ccccc1 (stereo not given)	inconclusive [cytotoxic, single point]	
Cc1oc2c(c1C(=O)NCc1cccnc1)C(=O)c1ccccc1C2=O	active: 2.59 µM	
CS(=O)(=O)Nc1ccc(C2=NN(C(=O)c3ccco3)C(c3cccc(F)c3)C2)cc1 (stereo not given)	inconclusive [cytotoxic, single point]	
CC1C=CC=CC=CC=CC=CC=CC=CC(OC2OC(C)C(O)C(N)C2O)CC2OC(O)(CC(O)CC(O)C(O)CCC(O)CC(O)CC(=O)OC(C)C(C)C1O)CC(O)C2C(=O)O (stereo not given)	active: 9.2 µM	
CC(COc1cccc2ccccc12)CN1CCN(C)CC1 (stereo not given)	inconclusive [cytotoxic, single point]	
COc1ccc(C(C(=O)NCc2ccccc2)n2c(=O)c(-c3ccco3)nc3ccccc32)cc1 (stereo not given)	active: 20.6 µM	
CCN(CC)c1ccc(C(=O)N/N=C(\C)c2ccc(OC)c(OC)c2)cc1	inconclusive [cytotoxic, single point]	
COc1ccc(-c2cc(NC(C)=O)c3ncc(-c4cccc(C(C)=O)c4)n3c2)cc1OC	inconclusive [cytotoxic, single point]	
CCOc1cc(/C=C2/SC(=Nc3ccccc3)N(Cc3cccnc3)C2=O)ccc1OCC#N	inconclusive [cytotoxic, single point]	
COc1cccc(C2NC(=S)NC(C)=C2C(=O)c2ccccc2)c1OC (stereo not given)	active: 1.46 µM	
O=C(Nc1ccc(Oc2ccccc2)cc1)c1csc([C@@H]2O[C@H](CO)[C@@H](O)[C@H]2O)n1	active: 7.31 µM	
Cc1c(Cl)cccc1NC(=S)NC(=O)c1ccccc1	inactive	
COc1ccccc1N1CCN(C(=O)c2[nH]c(C(F)(F)F)nc2-c2ccccc2)CC1	active: 0.82 µM	

Structure (SMILES)	Potency	activity, negative = toxicity
Cc1cc(NCCCN2CCOCC2)n2nc(C)c(-c3ccc(F)cc3)c2n1	inconclusive [cytotoxic, single point]	
CC1COC(=O)C(NNc2ccc(Cl)c(Cl)c2)=N1 (stereo not given)	inconclusive [cytotoxic, partial curve]	
Cc1cc(C)nc(N2CCCC(C(=O)Nc3nnc(C)s3)C2)n1 (stereo not given)	inactive	
CN(C)C(=O)c1cccc(-c2cnc3c(NC=O)cc(-c4ccccc4N(C)C)cn23)c1	inconclusive [cytotoxic, single point]	
N#C/C(=C\c1ccc([N+](=O)[O-])o1)C(=O)Nc1ccc(F)cc1	inconclusive [cytotoxic, single point]	
Cc1ccc(-n2cc(CN3CCC(CO)(Cc4cccc(C(F)(F)F)c4)CC3)cn2)cc1	active: 18.4 µM	
Clc1ccc(/C=N/NC(=Nc2ccccc2)c2ccccn2)c(Cl)c1	inactive	
CC(=NNc1nc2ccccc2o1)c1cc2ccccc2cn1	inconclusive [cytotoxic, partial curve, poor fit]	
O=c1[nH]ccc2c(O)cccc12	inconclusive [cytotoxic, single point]	
CC(C)(C)c1ccc(-n2nc(C#N)c(Cl)cc2=O)cc1	active: 3.26 µM	
CCC(CO)NCc1ccccc1OC(C)C (stereo not given)	inactive	
Cc1ccc(C(=O)NCCSc2ccc(Cl)cc2)cc1S(=O)(=O)Nc1ccccc1	inconclusive [cytotoxic, single point]	
Cc1cc(C)c2nc(NNC(=O)c3ccc(S(=O)(=O)N4CCCC(C)C4)cc3)sc2c1 (stereo not given)	inconclusive [cytotoxic, partial curve]	
CCOC(=O)c1ccc(NC(=O)Nc2ccccn2)cc1	inactive	
CC(=O)OC(/C(O)=C(\C#N)c1nc2ccccc2[nH]1)c1ccccc1 (stereo not given)	inconclusive [cytotoxic, single point]	
CCCc1c(NC(=O)Nc2ccc(F)cc2)cnn1-c1ccccc1	inconclusive [cytotoxic, partial curve]	
Cc1[nH]c2ccccc2c1/C=N/NC(=S)NC(C)C	inconclusive [cytotoxic, single point]	
O=C(Cc1ccc(S(=O)(=O)N2CCOCC2)s1)N1CCN(S(=O)(=O)c2cccc([N+](=O)[O-])c2)CC1	inactive	
CCOC(=O)c1c(CN2CCCCC2C)oc2ccc(OC)cc12 (stereo not given)	inconclusive [cytotoxic, single point]	
CCCCC[C@@H](C)N1C[C@@H](COCc2ccccc2)Oc2cc(N3CC[C@@H](N(C)C)C3)ccc2S1(=O)=O	active: 18.4 µM	
Cc1ccccc1-c1ccc2c(c1)O[C@@H](CN(C)C(=O)Nc1ccc(C(F)(F)F)cc1)[C@H](C)CN([C@@H](C)CO)S2(=O)=O	active: 16.4 µM	
Cc1noc(C)c1NC(=O)Nc1cccc2c1O[C@@H](CN(C)C(=O)Nc1ccc3c(c1)OCO3)[C@@H](C)CN([C@H](C)CO)C2=O	inactive	
